1 molecule from patent US20020146411A1, “Anticoagulant agents useful in treatment of thrombosis” (SmithKline Beecham Corporation, priority 1996, published 2002) can be followed below.

The experiment concerns BC2 antibody. Description: BiaCore binding of Factor IX/Factor VII constructs to immobilized BC2. As to conditions: 200 nM construct, 25 mM MOPS pH 7.4, 0.15 M NaCl, 5 mM CaCl2. The method, then:
A library of chimeric constructs composed of sequences of Factor IX spliced into the framework of the homologous protein Factor VII was constructed and used to map the epitope for the Factor IX BC2 mAb. See Cheung et al., Thromb. Res. 80, 419-427 (1995). Binding was measured using a BiaCore 2000 surface plasmon resonance device. The BC2 antibody was coupled directly to the chip using the NHS/EDC reaction. Binding was measured by 2 min of contact time at 20 uL/min with 200 nM of each of the given constructs in 25 mM MOPS, pH 7.4, 0.15 M NaCl, 5 mM CaCl2. Dissociation was monitored for 3 min using the same buffer with no protein. No binding was detected to the wild type construct in the presence of 50 mM EDTA.
(In general: In SPR one partner is held on a chip, and binding of the other changes the refractive index at the surface.)

B1: VII-A/IX: chimeric Factor VII/Factor IX construct (protein)
chain: ANAFLEELRPGSLERECKEEQCSFEEAREIFKDAERTKLFWISYSDGDQCESNPCLNGGSCKDDINSYECWCPFGFEGKNCELDVTCNIKNGRCEQFCKNSADNKVVCSCTEGYRLAENQKSCEPAVPFPCGRVSVSQTSKLTRAETVFPDVDYVNSTEAETILDNITQSTQSFNDFTR[about 250 residues not listed]
On to B1, for which the “Degree of Binding to BC2” value is recorded as “No Binding”.
